Reference: the BET-seq Pho4 binding data (Le et al. 2018)
The list shows a part of the results. The energies were worked out here from pooled read counts, against the library average; single values are noisy.

These sequences were tested against T1, Pho4 (S. cerevisiae) (UniProt P07270) (assay: relative binding free energy (BET-seq); higher = weaker binding). Settings: reference: library average.
T1 sequence: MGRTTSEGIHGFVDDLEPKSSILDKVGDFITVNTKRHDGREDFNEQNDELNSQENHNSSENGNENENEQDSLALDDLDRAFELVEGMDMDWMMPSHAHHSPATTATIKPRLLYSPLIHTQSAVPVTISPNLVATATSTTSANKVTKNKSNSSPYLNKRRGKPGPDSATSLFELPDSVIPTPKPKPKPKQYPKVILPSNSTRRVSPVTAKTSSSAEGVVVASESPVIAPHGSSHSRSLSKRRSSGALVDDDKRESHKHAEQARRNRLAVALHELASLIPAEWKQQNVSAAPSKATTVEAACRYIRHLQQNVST

| Sequence | relative binding free energy |
| --- | --- |
| TGATACACGTGTGTGG | 0.04 kcal/mol |
| ATTATCACGTGGAGTA | 0.16 kcal/mol |
| GGTCGCACGTGCGATG | 0.04 kcal/mol |
| CATAGCACGTGGTAGG | -0.21 kcal/mol |
| AAGGGCACGTGGCTTT | -0.3 kcal/mol |
| GTTCTCACGTGTAAGG | 0.19 kcal/mol |
| ACGGTCACGTGTTGAG | 0.11 kcal/mol |
| GTTGTCACGTGGTAAG | 0.15 kcal/mol |
| TACAGCACGTGAGTGG | 0.03 kcal/mol |
| TTCTTCACGTGGGTAG | 0.15 kcal/mol |
| TAAGTCACGTGGGGAA | -0.01 kcal/mol |
| GCGTGCACGTGTGGCG | -0.1 kcal/mol |
| GTGGGCACGTGAGATA | 0.25 kcal/mol |
| AATTGCACGTGGGTTT | -0.12 kcal/mol |
| TTTCTCACGTGATGTA | 0.37 kcal/mol |
| GGTTACACGTGAAGAT | 0.41 kcal/mol |
| TGTTGCACGTGCCGGG | -0.1 kcal/mol |
| CCTTGCACGTGGTGTT | -0.14 kcal/mol |
| GTTATCACGTGGATTG | 0.32 kcal/mol |
| GGAGGCACGTGGAAGT | 0.08 kcal/mol |
| TATAACACGTGGGATG | -0.1 kcal/mol |
| GGGGCCACGTGTGTAG | -0.03 kcal/mol |
| TAAGTCACGTGTGGTT | 0.09 kcal/mol |
| CATAGCACGTGTGGTG | -0.12 kcal/mol |
| GTATGCACGTGTGGAG | 0.08 kcal/mol |

| Sequence | relative binding free energy |
| --- | --- |
| GGTAGCACGTGTGAGC | -0.04 kcal/mol |
| TGGGACACGTGTCGGT | 0.09 kcal/mol |
| GTGGACACGTGGAGAG | 0.12 kcal/mol |
| ATTATCACGTGGGAGG | 0.16 kcal/mol |
| AATGGCACGTGTTGGT | 0.02 kcal/mol |
| GTGGCCACGTGGAGGA | 0.02 kcal/mol |
| AGGGACACGTGCTTGG | -0.07 kcal/mol |
| TGGGCCACGTGCAGTT | -0.01 kcal/mol |
| TTTCTCACGTGGGGAA | 0.15 kcal/mol |
| GGTTTCACGTGGGAGC | 0.36 kcal/mol |
| AGGGGCACGTGGCTCT | -0.08 kcal/mol |
| AGGAGCACGTGTATTA | -0.07 kcal/mol |
| TCTTACACGTGAGATT | 0.44 kcal/mol |
| TTCTACACGTGTGTGC | 0.17 kcal/mol |
| ATCTGCACGTGGATTT | 0.12 kcal/mol |
| CATGACACGTGGGGGG | -0.08 kcal/mol |
| TGTATCACGTGTGAAA | 0.13 kcal/mol |
| TTAGTCACGTGCGGGC | 0 kcal/mol |
| AATGTCACGTGTATGA | 0.19 kcal/mol |
| TGGATCACGTGATATG | 0.25 kcal/mol |
| TGTTCCACGTGAAGTA | 0.3 kcal/mol |
| TAGAGCACGTGTTTAG | -0.15 kcal/mol |
| ACATTCACGTGGTGAT | 0.19 kcal/mol |
| GTTTGCACGTGCATTG | 0.04 kcal/mol |
| TTGGCCACGTGAGAGT | 0.04 kcal/mol |

| Sequence | relative binding free energy |
| --- | --- |
| TGATTCACGTGTACAT | 0.37 kcal/mol |
| TATGGCACGTGGGGGG | -0.19 kcal/mol |
| CGGGGCACGTGTAGCG | -0.04 kcal/mol |
| TACGTCACGTGTGAGT | 0.18 kcal/mol |
| AGTGACACGTGGGGGT | -0.14 kcal/mol |
| TGTATCACGTGGGACA | 0.02 kcal/mol |
| GTCGTCACGTGCGGTT | 0.09 kcal/mol |
| TGGGACACGTGTATGG | 0.04 kcal/mol |
| TTTTCCACGTGCTTTG | 0.05 kcal/mol |
| TGGGGCACGTGAGATT | 0.22 kcal/mol |
| AGGTACACGTGAGCGG | 0.2 kcal/mol |
| GAGAGCACGTGAAGGG | 0.26 kcal/mol |
| GTGGGCACGTGCTTTC | -0.07 kcal/mol |
| TGCGACACGTGAGGGA | 0.21 kcal/mol |
| GGGAACACGTGGTTGC | 0.05 kcal/mol |
| TTAATCACGTGTCTAG | 0.19 kcal/mol |
| TGGATCACGTGGGGCT | -0.03 kcal/mol |
| TATAGCACGTGTGGAG | -0.03 kcal/mol |
| TGATACACGTGGTACT | 0.04 kcal/mol |
| TGGGTCACGTGGTGGG | 0.06 kcal/mol |
| TTAGGCACGTGCGTGC | -0.12 kcal/mol |
| TTTTGCACGTGTCATT | 0.21 kcal/mol |
| GGGTCCACGTGTGTTT | 0.12 kcal/mol |
| TTGTTCACGTGCGCGA | 0.09 kcal/mol |
| AGGGGCACGTGGGGGG | -0.15 kcal/mol |

| Sequence | relative binding free energy |
| --- | --- |
| GGGCTCACGTGGTCTG | 0.26 kcal/mol |
| TATATCACGTGAATGA | 0.42 kcal/mol |
| GCTTGCACGTGAGCGT | 0.26 kcal/mol |
| ATTTACACGTGTAGTT | 0.11 kcal/mol |
| GTCTTCACGTGAATTT | 0.48 kcal/mol |
| CGGGGCACGTGCCGTG | -0.23 kcal/mol |
| GAGGTCACGTGCGATG | 0.13 kcal/mol |
| TACAACACGTGAGGGG | 0.36 kcal/mol |
| AAAGTCACGTGGTAGG | 0.03 kcal/mol |
| CTGGCCACGTGGGGCG | -0.32 kcal/mol |
| TGACACACGTGTTTGG | -0.07 kcal/mol |
| GGTAGCACGTGTCTGA | 0 kcal/mol |
| AGTCACACGTGGGGTT | -0.06 kcal/mol |
| CGTGTCACGTGCTGGG | 0.13 kcal/mol |
| AGGGTCACGTGTGACG | 0.04 kcal/mol |
| CTGGTCACGTGTGAGC | 0.16 kcal/mol |
| TGGCACACGTGAGTGA | 0.33 kcal/mol |
| ATTGACACGTGTTGGC | 0.02 kcal/mol |
| ATAAGCACGTGAGGGC | 0.21 kcal/mol |
| GCATGCACGTGGGTCT | -0.05 kcal/mol |
| GGGGACACGTGGAACG | 0.13 kcal/mol |
| CAGTTCACGTGGCTGT | 0.21 kcal/mol |
| GTTACCACGTGTTTGT | -0.07 kcal/mol |
| GGAATCACGTGTTATT | 0.26 kcal/mol |
| AGGATCACGTGATGTG | 0.2 kcal/mol |

| Sequence | relative binding free energy |
| --- | --- |
| CCGGGCACGTGTTGTT | -0.17 kcal/mol |
| TGGGTCACGTGAGTTA | 0.27 kcal/mol |
| CTGCGCACGTGGATGG | -0.15 kcal/mol |
| TTCAACACGTGAGGTG | 0.23 kcal/mol |
| TCGGGCACGTGCATAG | -0.05 kcal/mol |
| AGTGCCACGTGTGGAT | -0.06 kcal/mol |
| TTAGACACGTGTTATG | 0.02 kcal/mol |
| TACTGCACGTGGGGGT | -0.23 kcal/mol |
| TTCATCACGTGTCTGT | 0.04 kcal/mol |
| AATAGCACGTGGAGGA | -0.14 kcal/mol |
| GAGTACACGTGGGGGA | 0.04 kcal/mol |
| CTAGTCACGTGGGCTG | -0.07 kcal/mol |
| GTCTGCACGTGTTTGA | 0 kcal/mol |
| TTGAGCACGTGAAGGG | 0.21 kcal/mol |
| GTGATCACGTGGTTTC | 0.04 kcal/mol |
| GTGCTCACGTGGTGGG | 0.22 kcal/mol |
| GGTGACACGTGAGTCT | 0.24 kcal/mol |
| TAGTTCACGTGTATCG | 0.35 kcal/mol |
| TTTTCCACGTGTTCTG | 0.17 kcal/mol |
| TGCTACACGTGTTTTG | -0.01 kcal/mol |
| TGGGACACGTGCGGGA | 0.03 kcal/mol |
| AGGGCCACGTGTTTGA | 0.01 kcal/mol |
| TATGCCACGTGGTTTG | -0.14 kcal/mol |
| GACTGCACGTGTTTTG | 0.04 kcal/mol |
| TAGTTCACGTGGCGGC | 0.24 kcal/mol |

| Sequence | relative binding free energy |
| --- | --- |
| TTGGTCACGTGGTATA | 0.1 kcal/mol |
| ATTTACACGTGTCAAG | 0.18 kcal/mol |
| TGGTCCACGTGCAGGG | -0.14 kcal/mol |
| AAAGGCACGTGCGTGT | -0.18 kcal/mol |
| GCGGGCACGTGAGGTT | 0.22 kcal/mol |
| TTATCCACGTGAGGTT | 0.33 kcal/mol |
| AAGGGCACGTGTGACG | 0 kcal/mol |
| TGGGTCACGTGTACAG | -0.01 kcal/mol |
| ATTTTCACGTGGTCTG | 0.12 kcal/mol |
| TCTTGCACGTGTGTAA | 0 kcal/mol |
| CATGACACGTGAGGTT | 0.26 kcal/mol |
| AAGGTCACGTGTATGC | 0.26 kcal/mol |
| CTGAACACGTGTTGGG | 0.06 kcal/mol |
| GGGGGCACGTGTTGCA | -0.01 kcal/mol |
| TTAGGCACGTGTGCAA | -0.15 kcal/mol |
| TGTGGCACGTGTGCCT | -0.08 kcal/mol |
| CAGGGCACGTGGGGCG | -0.23 kcal/mol |
| CCTTGCACGTGAGGGG | 0.19 kcal/mol |
| GTTGGCACGTGGCGTT | -0.16 kcal/mol |
| TCGGTCACGTGATCGG | 0.28 kcal/mol |
| TTTGGCACGTGAGATA | 0.16 kcal/mol |
